# According to the supplement of paper PMC8728848:
# This is one part of the list.
# Experiments:
# Assay in all cases: glycan array binding signal (z-score within array); higher = stronger binding
# Conditions in all cases: glycan notation: IUPAC condensed, linker removed
# Gal(a1-3)Gal = target: Gal(a1-3)Gal
# In short: (§1)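 Glycan array data came from 3228 arrays in the Consortium for Functional Glycomics database, and only arrays with an available protein sequence were kept. Glycan names were put into IUPAC-condensed notation, and columns mapping to the same glycan were averaged. The binding signal is a within-array Z-score, averaged across arrays of one protein sequence run at different concentrations or buffers and across linkers. A negative Z-score can be read as non-binding.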
# Gal(a1-3)Gal(b1-3)GlcNAc = target: Gal(a1-3)Gal(b1-3)GlcNAc
# In short: as §1
# [1] = target: Gal(a1-3)Gal(b1-3)GlcNAc(b1-2)Man
# In short: as §1
# [2] = target: Gal(a1-3)Gal(b1-3)GlcNAc(b1-2)Man(a1-3)[Gal(a1-3)Gal(b1-3)GlcNAc(b1-2)Man(a1-6)]Man(b1-4)GlcNAc(b1-4)GlcNAc
# In short: as §1
# [3] = target: Gal(a1-3)Gal(b1-3)GlcNAc(b1-3)GalNAc
# In short: as §1
# [4] = target: Gal(a1-3)Gal(b1-3)GlcNAc(b1-6)GalNAc
# In short: as §1
# [5] = target: Gal(a1-3)Gal(b1-3)[Fuc(a1-4)]GlcNAc(b1-2)Man(a1-3)[Gal(a1-3)Gal(b1-3)[Fuc(a1-4)]GlcNAc(b1-2)Man(a1-6)]Man(b1-4)GlcNAc(b1-4)GlcNAc
# In short: as §1
# Gal(a1-3)Gal(b1-4)Glc = target: Gal(a1-3)Gal(b1-4)Glc
# In short: as §1
# Gal(a1-3)Gal(b1-4)GlcNAc = target: Gal(a1-3)Gal(b1-4)GlcNAc
# In short: as §1
# [6] = target: Gal(a1-3)Gal(b1-4)GlcNAc(b1-2)Man
# In short: as §1
# [7] = target: Gal(a1-3)Gal(b1-4)GlcNAc(b1-2)Man(a1-3)[Gal(a1-3)Gal(b1-4)GlcNAc(b1-2)Man(a1-6)]Man(b1-4)GlcNAc(b1-4)GlcNAc
# In short: as §1
# [8] = target: Gal(a1-3)Gal(b1-4)GlcNAc(b1-3)GalNAc
# In short: as §1
# [9] = target: Gal(a1-3)Gal(b1-4)GlcNAc(b1-6)GalNAc
# In short: as §1
# [10] = target: Gal(a1-3)Gal(b1-4)[Fuc(a1-3)]GlcNAc
# In short: as §1
# [11] = target: Gal(a1-3)Gal(b1-4)[Fuc(a1-3)]GlcNAc(b1-2)Man(a1-3)[Gal(a1-3)Gal(b1-4)[Fuc(a1-3)]GlcNAc(b1-2)Man(a1-6)]Man(b1-4)GlcNAc(b1-4)GlcNAc
# In short: as §1
# Gal(a1-3)GalNAc = target: Gal(a1-3)GalNAc
# In short: as §1
# [12] = target: Gal(a1-3)[Gal(a1-4)]Gal(b1-4)GlcNAc
# In short: as §1
# [13] = target: Gal(a1-4)Gal(b1-3)GlcNAc(b1-2)Man(a1-3)[Gal(a1-4)Gal(b1-3)GlcNAc(b1-2)Man(a1-6)]Man(b1-4)GlcNAc(b1-4)GlcNAc
# In short: as §1
# Gal(a1-4)Gal(b1-4)Glc = target: Gal(a1-4)Gal(b1-4)Glc
# In short: as §1
# Gal(a1-4)Gal(b1-4)GlcNAc = target: Gal(a1-4)Gal(b1-4)GlcNAc
# In short: as §1
# [14] = target: Gal(a1-4)Gal(b1-4)GlcNAc(b1-2)Man(a1-3)[Gal(a1-4)Gal(b1-4)GlcNAc(b1-2)Man(a1-6)]Man(b1-4)GlcNAc(b1-4)GlcNAc
# In short: as §1
# [15] = target: Gal(a1-4)Gal(b1-4)GlcNAc(b1-3)Gal(b1-4)Glc
# In short: as §1
# Gal(a1-4)GlcNAc = target: Gal(a1-4)GlcNAc
# In short: as §1
# Gal(a1-6)Glc = target: Gal(a1-6)Glc
# In short: as §1
# Gal(b1-2)Gal = target: Gal(b1-2)Gal
# In short: as §1
# Gal(b1-3)Gal = target: Gal(b1-3)Gal
# In short: as §1
# Gal(b1-3)Gal(b1-4)GlcNAc = target: Gal(b1-3)Gal(b1-4)GlcNAc
# In short: as §1
# Gal(b1-3)GalNAc = target: Gal(b1-3)GalNAc
# In short: as §1
# [16] = target: Gal(b1-3)GalNAc(a1-3)[Fuc(a1-2)]Gal(b1-4)Glc
# In short: as §1
# [17] = target: Gal(b1-3)GalNAc(a1-3)[Fuc(a1-2)]Gal(b1-4)GlcNAc
# In short: as §1
# Gal(b1-3)GalNAc(b1-3)Gal = target: Gal(b1-3)GalNAc(b1-3)Gal
# In short: as §1
# [18] = target: Gal(b1-3)GalNAc(b1-3)Gal(a1-4)Gal(b1-4)Glc
# In short: as §1
# [19] = target: Gal(b1-3)GalNAc(b1-4)Gal(b1-4)Glc
# In short: as §1
# [20] = target: Gal(b1-3)GalNAc(b1-4)[Neu5Ac(a2-3)]Gal(b1-4)Glc
# In short: as §1
# Gal(b1-3)GlcNAc = target: Gal(b1-3)GlcNAc
# In short: as §1
# [21] = target: Gal(b1-3)GlcNAc(a1-3)Gal(b1-4)GlcNAc
# In short: as §1
# [22] = target: Gal(b1-3)GlcNAc(a1-6)Gal(b1-4)GlcNAc
# In short: as §1
# Gal(b1-3)GlcNAc(b1-2)Man = target: Gal(b1-3)GlcNAc(b1-2)Man
# In short: as §1
binder,measurement,setting,value
Als3-N (Candida albicans) (protein) KTITGVFNSFNSLTWSNAATYNYKGPGTPTWNAVLGWSLDGTSASPGDTFTLNMPCVFKFTTSQTSVDLTAHGVKYATCQFQAGEEFMTFSTLTCTVSNTLTPSIKALGTVTLPLAFNVGGTGSSVDLEDSKCFTAGTNTVTFNDGGKKISINVDFERSNVDPKGYLTDSRVIPSLNKVSTLFVAPQCANGYTSGTMGFANTYGDVQIDCSNIHVGITKGLNDWNYPVSSESFSYTKTCSSNGIFITYKNVPAGYRPFVDAYISATDVNSYTLSYANEYTCAGGYWQRAPFTLRWTGYRNSDAGSNGIVIVATTRTVTDSTTAVTTLPFDPNRDKTKTIEILKPIPTTTITTSYVGVTTSYLTKTAPIGETATVIVDIPYHTTTTVTSKWTGTITSTTTHTNPTDSIDTVIVQVP,glycan array binding signal (z-score),Gal(a1-3)Gal,-0.182
same,glycan array binding signal (z-score),Gal(a1-3)Gal(b1-3)GlcNAc,1.24
same,glycan array binding signal (z-score),[1],-0.243
same,glycan array binding signal (z-score),[2],0.126
same,glycan array binding signal (z-score),[3],-0.171
same,glycan array binding signal (z-score),[4],-0.314
same,glycan array binding signal (z-score),[5],-0.267
same,glycan array binding signal (z-score),Gal(a1-3)Gal(b1-4)Glc,-0.069
same,glycan array binding signal (z-score),Gal(a1-3)Gal(b1-4)GlcNAc,-0.294
same,glycan array binding signal (z-score),[6],-0.138
same,glycan array binding signal (z-score),[7],0.109
same,glycan array binding signal (z-score),[8],-0.145
same,glycan array binding signal (z-score),[9],-0.245
same,glycan array binding signal (z-score),[10],-0.215
same,glycan array binding signal (z-score),[11],-0.071
same,glycan array binding signal (z-score),Gal(a1-3)GalNAc,-0.17
same,glycan array binding signal (z-score),[12],-0.221
same,glycan array binding signal (z-score),[13],1.12
same,glycan array binding signal (z-score),Gal(a1-4)Gal(b1-4)Glc,-0.218
same,glycan array binding signal (z-score),Gal(a1-4)Gal(b1-4)GlcNAc,-0.303
same,glycan array binding signal (z-score),[14],-0.173
same,glycan array binding signal (z-score),[15],-0.286
same,glycan array binding signal (z-score),Gal(a1-4)GlcNAc,-0.257
same,glycan array binding signal (z-score),Gal(a1-6)Glc,-0.279
same,glycan array binding signal (z-score),Gal(b1-2)Gal,-0.054
same,glycan array binding signal (z-score),Gal(b1-3)Gal,-0.195
same,glycan array binding signal (z-score),Gal(b1-3)Gal(b1-4)GlcNAc,-0.216
same,glycan array binding signal (z-score),Gal(b1-3)GalNAc,0.114
same,glycan array binding signal (z-score),[16],-0.158
same,glycan array binding signal (z-score),[17],-0.099
same,glycan array binding signal (z-score),Gal(b1-3)GalNAc(b1-3)Gal,-0.131
same,glycan array binding signal (z-score),[18],-0.238
same,glycan array binding signal (z-score),[19],-0.094
same,glycan array binding signal (z-score),[20],-0.256
same,glycan array binding signal (z-score),Gal(b1-3)GlcNAc,-0.186
same,glycan array binding signal (z-score),[21],2.03
same,glycan array binding signal (z-score),[22],0.088
same,glycan array binding signal (z-score),Gal(b1-3)GlcNAc(b1-2)Man,0.065
